Paper PMC7819943, “Rice protein-binding microarrays: a tool to detect cis-acting elements near promoter regions in rice”
This is one part of the list.

Target: T1, OsWOX13 (Oryza sativa, UniProt Q5QMM3 1-267)
T1 sequence: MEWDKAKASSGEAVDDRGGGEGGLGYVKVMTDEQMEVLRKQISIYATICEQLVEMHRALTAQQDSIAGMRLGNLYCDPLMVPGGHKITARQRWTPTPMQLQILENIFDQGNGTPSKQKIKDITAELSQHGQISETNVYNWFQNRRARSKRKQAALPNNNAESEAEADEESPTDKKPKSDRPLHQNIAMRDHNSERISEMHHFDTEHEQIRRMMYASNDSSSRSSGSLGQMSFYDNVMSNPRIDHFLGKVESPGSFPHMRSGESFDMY
Assay: protein-binding microarray (RPBM); PBS, 2% BSA, 51.3 ng/ul salmon testes DNA, 50 uM zinc acetate, 200 nM TF, 25 C, 1 h; high values mean tight binding
Conditions: protein: recombinant; tags: N-terminal polyhistidine and DsRed monomer fusion (pET32a); label: CyDye5-dUTP incorporated in the synthesized complementary strand; 3' TTTTT single-stranded linker to array surface; dsDNA, one strand shown
Procedure, shortened: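 For the binding signal, per-feature fluorescence intensity was read in arbitrary units on an Axon 4000B scanner. Before scanning, a 2% BSA-blocked custom Agilent array made double-stranded with Cy5-dUTP was washed after 1 h at 25 °C with 200 nM protein and 50 µM zinc acetate. The proteins were Ni–NTA-purified transcription factors with N-terminal polyhistidine and DsRed fusions, expressed in E. coli BL21-CodonPlus.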

Sequence	binding signal
AATCAATCAACCATCATTCCCCGGTGCTTGGCCATGGACCCGGAGTCACCTAGTGCAG	42200 fluorescence intensity (a.u.)
TAAGCCTAATCAATCCATAATTAAAGAATGTTTACTGTAGCGGAGTCACCTAGTGCAG	14900 fluorescence intensity (a.u.)
TGGGGAGTGGGATTGAGACGGGGAAATGAATGAAGGGTTACGGAGTCACCTAGTGCAG	7150 fluorescence intensity (a.u.)
TAATATAATTTTCAGCTTATAATATAATTATTATAAGCTACGGAGTCACCTAGTGCAG	5270 fluorescence intensity (a.u.)
ATTAATTGAGAAGCACTAACCAAATAAATCTTCATGAAGCCGGAGTCACCTAGTGCAG	49000 fluorescence intensity (a.u.)
AGTAGCAAATTTACAAATGTCAATAAATAATTCTCCACTTCGGAGTCACCTAGTGCAG	3320 fluorescence intensity (a.u.)
TAGCTGATTATTACAGATGTTGGAGGATGAATAATTGTGACGGAGTCACCTAGTGCAG	13500 fluorescence intensity (a.u.)
TTATGTAATTATCATTTATTTTATTGTGCCTTGATTCATCCGGAGTCACCTAGTGCAG	18400 fluorescence intensity (a.u.)
ATCCATTTAATATATGACTGGAGTGCCAGGTTAATCCATACGGAGTCACCTAGTGCAG	3790 fluorescence intensity (a.u.)
ACATGCTCAATGATAGATCTAATTAAGCTTTTCATTGATTCGGAGTCACCTAGTGCAG	14100 fluorescence intensity (a.u.)
AGCTAATTTATGCATGCATGGATTCCGATGGAGGAGCTGTCGGAGTCACCTAGTGCAG	19400 fluorescence intensity (a.u.)
CGGATTTAAATTATATGTTTTATATTCGCCTTCACTAATACGGAGTCACCTAGTGCAG	3490 fluorescence intensity (a.u.)
ACGACGACGATTGATTAAGGAGTCCTTAGAGCATGTACAACGGAGTCACCTAGTGCAG	16300 fluorescence intensity (a.u.)
CCTGCACAATCACTGGCTGATGCATCTGCAATGTCACCAACGGAGTCACCTAGTGCAG	4350 fluorescence intensity (a.u.)
CTTAATTAATCTTATGCTAATGAGATTTCTCGTTTTGCTTCGGAGTCACCTAGTGCAG	36200 fluorescence intensity (a.u.)
ATTCTAATTACTAGTTTTAACATAATTGTTAATAAATGCACGGAGTCACCTAGTGCAG	31600 fluorescence intensity (a.u.)
ACCGTACTAATTAATCCTTGTTTATCTGGCCGACCGACCACGGAGTCACCTAGTGCAG	16500 fluorescence intensity (a.u.)
AACTTTTGACATGATTTCTTATATAATTACCAGAATTTGGCGGAGTCACCTAGTGCAG	25500 fluorescence intensity (a.u.)
TAACCTAATTGTTGTCCCAGTTCCACGGCGCCGAGCCTGTCGGAGTCACCTAGTGCAG	8140 fluorescence intensity (a.u.)
ACTAAGATTATGGTTATTCTGTTATGCTAACTTAGGCATACGGAGTCACCTAGTGCAG	5040 fluorescence intensity (a.u.)
TCTTAATGCGAATAATTTCCCACATGATGTTTTCCCTCTACGGAGTCACCTAGTGCAG	5060 fluorescence intensity (a.u.)

Sequence	binding signal
CTACAATTTATCATAAACTTGATAAAATATAAACAAATTCCGGAGTCACCTAGTGCAG	4240 fluorescence intensity (a.u.)
ATATTCAGATTAGTTATCTAATAGGACTCTACTTTATAGGCGGAGTCACCTAGTGCAG	4060 fluorescence intensity (a.u.)
GAGGAAATTATAAGAAATTATACAACGGACGTAGCTTGCCCGGAGTCACCTAGTGCAG	9840 fluorescence intensity (a.u.)
TGGAAATTGACTCGTCACAAGCTGGACCAGACGACCGCTTCGGAGTCACCTAGTGCAG	30500 fluorescence intensity (a.u.)
AGTTAGCAGAGTTAACAATGTGATTAGCTGCGTACTGGAGCGGAGTCACCTAGTGCAG	6290 fluorescence intensity (a.u.)
TATTAATTTGCACTGTCTCCTGATGTTTGGTTTAATTTGTCGGAGTCACCTAGTGCAG	25700 fluorescence intensity (a.u.)
TATGATGAACTGTCAGTTGATTTGATGTCCCTGATATGCCCGGAGTCACCTAGTGCAG	27800 fluorescence intensity (a.u.)
ATAACTAAATTTGATACCTTAAATAAACAAGTCAAACTTGCGGAGTCACCTAGTGCAG	15600 fluorescence intensity (a.u.)
TATAGATAAAATTATTAGATTTATTTACTTTTATATAGTTCGGAGTCACCTAGTGCAG	7390 fluorescence intensity (a.u.)
GGTATAAAATGAAATCAATTGGAGGATTGAGCTTTTAAAACGGAGTCACCTAGTGCAG	4110 fluorescence intensity (a.u.)
TATCTAATTTATGATTTGATTACACCATTATATTTGTTACCGGAGTCACCTAGTGCAG	46200 fluorescence intensity (a.u.)
GGGTGATAATCAGCGGTGGTAAGATGATCGATGTCTCGACCGGAGTCACCTAGTGCAG	3530 fluorescence intensity (a.u.)
CGGTATTGGATTGATCAATCATCGTCACCTCGTTTTGCTTCGGAGTCACCTAGTGCAG	45400 fluorescence intensity (a.u.)
CAGATAATAATTAAGCCTAGTAACCCCATTTGCCGCACCACGGAGTCACCTAGTGCAG	5720 fluorescence intensity (a.u.)
AAATATATCATCAATTAATATTTGGCACACCTCTCTAACACGGAGTCACCTAGTGCAG	8310 fluorescence intensity (a.u.)
TATATATATATATATATATATATATATATATAAGGTTTGACGGAGTCACCTAGTGCAG	8570 fluorescence intensity (a.u.)
AATCGAATTAATTACTGCTCCGGTCAAACTTAAGCACGCACGGAGTCACCTAGTGCAG	15900 fluorescence intensity (a.u.)
CTCAAGCTTAATTAAGCTCGTAATCTCATATAACCTCTTTCGGAGTCACCTAGTGCAG	57900 fluorescence intensity (a.u.)
ACTACCAATGATTTACAGATATGGGAGTAGGGTCGACCCCCGGAGTCACCTAGTGCAG	18200 fluorescence intensity (a.u.)
TAGAGCATGTCAATTTGGTTAACGGCATAACTGCTAAGCTCGGAGTCACCTAGTGCAG	6940 fluorescence intensity (a.u.)
GATAGATAAGATTGATAACCACGATAACCAAATGGTTATTCGGAGTCACCTAGTGCAG	21900 fluorescence intensity (a.u.)

Sequence	binding signal
GGCTCAATCAAACAGCGGGAGTCTAGTTCGTCAATCTCCTCGGAGTCACCTAGTGCAG	8680 fluorescence intensity (a.u.)
ATAGATTGATCACAGAGGGAGCGCATACTTAACCAAAGTTCGGAGTCACCTAGTGCAG	20000 fluorescence intensity (a.u.)
AAAATCAATCAAAGTGTGACTGTGTGAGGCATGGCTGGAACGGAGTCACCTAGTGCAG	22000 fluorescence intensity (a.u.)
TAATAATACATGATAATTAATTAGCTACGTCCTTGTCAAACGGAGTCACCTAGTGCAG	23200 fluorescence intensity (a.u.)
ATATTGATGTTAATAAATCTAGATAGATATATATATATGTCGGAGTCACCTAGTGCAG	4790 fluorescence intensity (a.u.)
GTAAATTGTAAACCCTTTTATTTGAACAAGCCATAACCAACGGAGTCACCTAGTGCAG	5420 fluorescence intensity (a.u.)
GCACCTCTATTTAACACAAATTTTGACAATTTAACCCTTTCGGAGTCACCTAGTGCAG	5630 fluorescence intensity (a.u.)
ATATTTAATTATTATTTTAATAAAACTAATTTGGTAATGTCGGAGTCACCTAGTGCAG	25700 fluorescence intensity (a.u.)
AGCAACAATCATTCACCCAATCACCATGAAGAAGATGATCCGGAGTCACCTAGTGCAG	17100 fluorescence intensity (a.u.)
ACTGATTAGCTTAAGCCTTTAATATTCTAAATGTTTAGATCGGAGTCACCTAGTGCAG	37300 fluorescence intensity (a.u.)
TTGTAATCTGTAGTGGGGATTGGTACAACTAATGGTTTTACGGAGTCACCTAGTGCAG	3240 fluorescence intensity (a.u.)
AACAATAATTGAAAACAGTATCGGATGAGCATATACAGTTCGGAGTCACCTAGTGCAG	30500 fluorescence intensity (a.u.)
TCAAGCTTCTGCAATTTAGTTGATTGATCGAATTAATCAGCGGAGTCACCTAGTGCAG	24600 fluorescence intensity (a.u.)
ATTATAGTTTTGTGATTAAATTGGTACTATACCTGTAGTTCGGAGTCACCTAGTGCAG	10600 fluorescence intensity (a.u.)
ATATATATATATATATATATAAAGTATATATATATGTGTGCGGAGTCACCTAGTGCAG	9690 fluorescence intensity (a.u.)
ATTAAACTTGATTGAGAACAAAACGAAAACGTTTTATAATCGGAGTCACCTAGTGCAG	17000 fluorescence intensity (a.u.)
TCGTTTGATTAACCAGGAATTCCTCGTCTGCCTTAATGGTCGGAGTCACCTAGTGCAG	17500 fluorescence intensity (a.u.)
GTACGGTTATAATTTTGTAAAATTTTAGTGGCACGGTTATCGGAGTCACCTAGTGCAG	3710 fluorescence intensity (a.u.)
CTTTTACATTTCAATAATATAATTCATAAATTTTAATGTTCGGAGTCACCTAGTGCAG	3200 fluorescence intensity (a.u.)
ACCAACACAAATAGACAAACTGAATTTTGGAAATTTGGGTCGGAGTCACCTAGTGCAG	14000 fluorescence intensity (a.u.)
AATATAATTATTTATACTTCATAGATTTCATGTTCTTCTGCGGAGTCACCTAGTGCAG	24500 fluorescence intensity (a.u.)

Sequence	binding signal
TCTTAATGAACATTACATAATAGTACAATTGTAAAGTCTTCGGAGTCACCTAGTGCAG	3750 fluorescence intensity (a.u.)
CATAACCATGACACGACATGATTATTTCGAGCAGAGGCTGCGGAGTCACCTAGTGCAG	16400 fluorescence intensity (a.u.)
CAATCCATAATTACATACATAACTAATTATATATATGGATCGGAGTCACCTAGTGCAG	14800 fluorescence intensity (a.u.)
TACCCACTCTAATTGGCCCTTTCAATTTTGGCCCATGAGCCGGAGTCACCTAGTGCAG	15300 fluorescence intensity (a.u.)
TAAATTGGCTATAGATGATTTGTAGTTAGTAGATGGCTATCGGAGTCACCTAGTGCAG	38000 fluorescence intensity (a.u.)
CACTGCAAATTAGATCTATATATAGTGAAACATTGTGAGACGGAGTCACCTAGTGCAG	6780 fluorescence intensity (a.u.)
GGAGGAGGAGGTGGTGGTGGTGGTGAAGCCGCGGAGGTGCCGGAGTCACCTAGTGCAG	4940 fluorescence intensity (a.u.)
CAACAAAATCAGCCAGATTAAACTGCACGAATTACGTACGCGGAGTCACCTAGTGCAG	5950 fluorescence intensity (a.u.)
ACAGCCAATCAGAATAGGACACATCACCCAGTCTAAAACTCGGAGTCACCTAGTGCAG	16500 fluorescence intensity (a.u.)
ACTTATAAAACTAATTATATAAATAAAAGCTAATTCGGCGCGGAGTCACCTAGTGCAG	4700 fluorescence intensity (a.u.)
TATTTTCCCAATTTAAAAGTAATAGATAGTTAGAATTACACGGAGTCACCTAGTGCAG	3480 fluorescence intensity (a.u.)
TGCAGGTGATTGCAGTTAACACAACCAGTCGAGCGCATTACGGAGTCACCTAGTGCAG	30300 fluorescence intensity (a.u.)
CAACATAACTACTCTAATATATCAATTTATGTAGATAATGCGGAGTCACCTAGTGCAG	3320 fluorescence intensity (a.u.)
CCTCATTGATATGTACTACTGGAATCAAGCAGCGTTGTGGCGGAGTCACCTAGTGCAG	4350 fluorescence intensity (a.u.)
GATAATTTGTTATAGATCCCTGGTCCTTAGTTCTAACGTTCGGAGTCACCTAGTGCAG	31600 fluorescence intensity (a.u.)
GGTTGACAGGTAGGGCCCACGATGACTCAGCAGCCACGTACGGAGTCACCTAGTGCAG	17900 fluorescence intensity (a.u.)
GGTAATGGGAGAGGCTGATGTGGCGTGAAATCTCTTGCGTCGGAGTCACCTAGTGCAG	5880 fluorescence intensity (a.u.)
TTGCTAATTTTGTTCCCTTGGAAACGGCCGAACAGTTTTGCGGAGTCACCTAGTGCAG	12900 fluorescence intensity (a.u.)
CTCTACTCGCCAATTTTCCCTTCTTATTTTCGCTATTTCTCGGAGTCACCTAGTGCAG	3170 fluorescence intensity (a.u.)
ACCAAAACAATCTTAAATTTAAAGTTTGACTTTTAAGAACCGGAGTCACCTAGTGCAG	4460 fluorescence intensity (a.u.)
TATGGTTTGATTAGATTTAAGAACTTGTTTTGGTCTCTATCGGAGTCACCTAGTGCAG	27400 fluorescence intensity (a.u.)
